Test results: the supplement of paper PMC12067230
This is a noisy data set.
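Note: [psi-pin-] Saccharomyces cerevisiae expressing SupN fusions, induced by 100 µM Cu2SO4, selected 7 d at 30 °C without adenine and uracil, scored by deep sequencing of output versus input.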

Test: amyloid nucleation score relative to library mode (yeast Sup35 reporter selection) (log enrichment difference); higher = more amyloid nucleation; sequences are the first 22 residues of the Bri2 peptide extended by up to 12 random residues
Details: random library (experiment): 1;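 active = nucleation score significantly above 0 at FDR 0.05; inactive = not significantly above 0 or absent from output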
Description: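 Random C-terminal extensions of the 22-aa Bri2 peptide by 12 NNK codons; premature stops give shorter extensions. Peptides were fused to the Sup35 nucleation domain in S. cerevisiae [psi-pin-] and selected on -ADE-URA plates for 7 d at 30 °C. The nucleation score is log(output/input), centred to the mode of each of 3 independent libraries (1 input, 3 technical output replicates), with duplicates merged. Sequences absent from the output ('random_non_nuc') were imputed with the library mode value, so they are given as censored (<). Nucleators are scores significantly >0 at FDR 0.05.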
For EASNCFAIRHFENKFAVETLICRVTSLPPGLW, the amyloid nucleation score was “inactive”. In the case of EASNCFAIRHFENKFAVETLICAQSPHSPHRVVI, the amyloid nucleation score is reported as “inactive”. For EASNCFAIRHFENKFAVETLICIRWCRVNEVRSG, the amyloid nucleation score was “inactive”. EASNCFAIRHFENKFAVETLICTFSFDLKDYARH gave an amyloid nucleation score of 2.37. In the case of EASNCFAIRHFENKFAVETLICYLHGPTWFLYGG, the amyloid nucleation score is reported as 0.6. With EASNCFAIRHFENKFAVETLICVCVSVADRLLSM the amyloid nucleation score was “inactive”. In the case of EASNCFAIRHFENKFAVETLICLMALA, the amyloid nucleation score is reported as “inactive”. With EASNCFAIRHFENKFAVETLICGSSDRYVSIRWM the amyloid nucleation score was “inactive”. For EASNCFAIRHFENKFAVETLICRH, the amyloid nucleation score was “inactive”. For EASNCFAIRHFENKFAVETLICDRPRWRLCESPG, the amyloid nucleation score was “inactive”. Work on EASNCFAIRHFENKFAVETLICVDVLWWNKMYEA yielded an amyloid nucleation score of 3.7. Sequence EASNCFAIRHFENKFAVETLICEDVWLLELGLPS has an amyloid nucleation score of 5.8. EASNCFAIRHFENKFAVETLICEGCRVHVEGV gave an amyloid nucleation score of 0.786. With EASNCFAIRHFENKFAVETLICYFGL the amyloid nucleation score was 8.11. For EASNCFAIRHFENKFAVETLICVTESIHICFH, the amyloid nucleation score was 2.08. Work on EASNCFAIRHFENKFAVETLICGV yielded an amyloid nucleation score of -0.693. With EASNCFAIRHFENKFAVETLICKMAVVP the amyloid nucleation score was “inactive”. In the case of EASNCFAIRHFENKFAVETLICNGRLSYVCDLIV, the amyloid nucleation score is reported as 1.26. In the case of EASNCFAIRHFENKFAVETLICVVYKLVYIRSHL, the amyloid nucleation score is reported as “inactive”. Sequence EASNCFAIRHFENKFAVETLICVRHSDARRCVRR has an amyloid nucleation score of 4.24. With EASNCFAIRHFENKFAVETLICELSRVRNTNSLG the amyloid nucleation score was “inactive”. In the case of EASNCFAIRHFENKFAVETLICWRAVCSM, the amyloid nucleation score is reported as “inactive”. Work on EASNCFAIRHFENKFAVETLICCNEQVCLWNSGL yielded an amyloid nucleation score of 7.74. For EASNCFAIRHFENKFAVETLICVSVFAMVRSSYE, the amyloid nucleation score was “inactive”. EASNCFAIRHFENKFAVETLICGIAVGPSLWSCG showed an amyloid nucleation score of 2.65. EASNCFAIRHFENKFAVETLICMRVYGRN gave an amyloid nucleation score of 3.2. Work on EASNCFAIRHFENKFAVETLICLFGMWQGRELVR yielded an amyloid nucleation score of -0.227. In the case of EASNCFAIRHFENKFAVETLICCDRSWQNRSHFV, the amyloid nucleation score is reported as “inactive”. For EASNCFAIRHFENKFAVETLICFRVLMRRLVVFC, the amyloid nucleation score was “inactive”. In the case of EASNCFAIRHFENKFAVETLICVCSSRWGVEGDA, the amyloid nucleation score is reported as “inactive”. For EASNCFAIRHFENKFAVETLICVDLLEGFTKLCL, the amyloid nucleation score was 5.7. Work on EASNCFAIRHFENKFAVETLICVGTGRRADRVCE yielded an amyloid nucleation score of -0.273. Work on EASNCFAIRHFENKFAVETLICLCRDRSLSTYTP yielded an amyloid nucleation score of 3.14. Work on EASNCFAIRHFENKFAVETLICIEAGNESRCRVA yielded an amyloid nucleation score of 5.42. Work on EASNCFAIRHFENKFAVETLICCIW yielded an amyloid nucleation score of 8.69. EASNCFAIRHFENKFAVETLICNSMDMGRNSCAF showed an amyloid nucleation score of 1.94. Work on EASNCFAIRHFENKFAVETLICVDRLGVFARVPY yielded an amyloid nucleation score of 2.46. Sequence EASNCFAIRHFENKFAVETLICDFTFIVTTSPVS has an amyloid nucleation score of 6.25. Work on EASNCFAIRHFENKFAVETLICASAVRNADLLVW yielded an amyloid nucleation score of 4.74. For EASNCFAIRHFENKFAVETLICLSVVTWM, the amyloid nucleation score was 5.13. Sequence EASNCFAIRHFENKFAVETLICVLCDKS has an amyloid nucleation score of 5.38. In the case of EASNCFAIRHFENKFAVETLICVKIS, the amyloid nucleation score is reported as “inactive”. For EASNCFAIRHFENKFAVETLICLYIFPHHLGPLR, the amyloid nucleation score was “inactive”. For EASNCFAIRHFENKFAVETLICDRGAVVCAKLHR, the amyloid nucleation score was -0.219. With EASNCFAIRHFENKFAVETLICMVSIGCWSNLAR the amyloid nucleation score was “inactive”. For EASNCFAIRHFENKFAVETLICCVSCG, the amyloid nucleation score was 3.77. For EASNCFAIRHFENKFAVETLICMLVSKSIVHNVL, the amyloid nucleation score was “inactive”. For EASNCFAIRHFENKFAVETLICKVGVLMLRDRRC, the amyloid nucleation score was “inactive”. In the case of EASNCFAIRHFENKFAVETLICLRCVTTLACGIK, the amyloid nucleation score is reported as “inactive”. For EASNCFAIRHFENKFAVETLICVTWHVTFDTSEQ, the amyloid nucleation score was “inactive”. EASNCFAIRHFENKFAVETLICARRYDKELAVC gave an amyloid nucleation score of 0.0606. With EASNCFAIRHFENKFAVETLICNLESGYAVRLHG the amyloid nucleation score was “inactive”. In the case of EASNCFAIRHFENKFAVETLICGVCIMWMPKQME, the amyloid nucleation score is reported as 8.13. In the case of EASNCFAIRHFENKFAVETLICISLNTIISFAC, the amyloid nucleation score is reported as 2.84. With EASNCFAIRHFENKFAVETLICIYRCAPQCRDYV the amyloid nucleation score was 2.51.

Same assay, conditions: random library (experiment): 2
In the case of EASNCFAIRHFENKFAVETLICQNLANKHLCMPS, the amyloid nucleation score is reported as “inactive”. For EASNCFAIRHFENKFAVETLICLNTPAVFLCWCM, the amyloid nucleation score was 5.78. For EASNCFAIRHFENKFAVETLICGMMSCMFLWSLI, the amyloid nucleation score was “inactive”.
